Measurements published in publication PMC10730550.
These are yes or no findings as the source states them, for the method shown. Binding seen in cells or lysates may run through a third protein. Some binding calls cover weakened binding; strength is not graded here. For some of these results: Where a sequence is shown, tags or fusion partners need not be part of it.

Columns and labels:
[1] = target: T1, GST fusion of human NDP52 (HEK293T) (human) (UniProt Q13137); experiment: pull-down; GST beads on NP-40 lysates of HEK293T cells co-transfected with GST or GST-NDP52 and Flag-tagged envelope constructs, 4 °C for 8 h, Western blot
T1 sequence: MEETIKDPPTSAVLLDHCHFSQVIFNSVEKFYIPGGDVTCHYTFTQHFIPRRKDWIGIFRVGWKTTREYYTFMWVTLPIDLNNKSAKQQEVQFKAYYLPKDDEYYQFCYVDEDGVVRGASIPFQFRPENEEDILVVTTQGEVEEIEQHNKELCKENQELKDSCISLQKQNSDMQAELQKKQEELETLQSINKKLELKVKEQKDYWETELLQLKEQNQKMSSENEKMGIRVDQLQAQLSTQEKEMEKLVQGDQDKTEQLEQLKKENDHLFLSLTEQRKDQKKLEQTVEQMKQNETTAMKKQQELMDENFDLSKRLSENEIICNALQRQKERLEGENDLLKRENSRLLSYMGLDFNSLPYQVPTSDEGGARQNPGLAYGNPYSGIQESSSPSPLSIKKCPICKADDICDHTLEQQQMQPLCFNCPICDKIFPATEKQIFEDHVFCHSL

[2] = target: T2, endogenous NDP52 (Huh7 cells) (human (endogenous in Huh7)) (UniProt Q13137); experiment: co-IP
T2 sequence: T1 sequence

[3] = target: T3, Flag-tagged NDP52 full length (UniProt Q13137); experiment: co-IP; Flag precipitation from lysates of HEK293T cells co-transfected with Flag-tagged NDP52 full length or truncations and HA-tagged M; Western blot
T3 sequence: T1 sequence

[4] = target: T4, endogenous NDP52 (HepAD38 cells) (human (endogenous in HepAD38)) (UniProt Q13137); experiment: co-IP; anti-NDP52 antibody on lysates of HepAD38 cells without doxycycline (replicating HBV); Western blot
T4 sequence: T1 sequence

Substance | binding [1] | binding [2] | binding [4] | also measured
3xFlag-tagged HBV L envelope protein (HEK293T) (from UniProt P03138 1-389) | binds |  |  | 
3xFlag-tagged HBV L envelope protein (Huh7) (from UniProt P03138 1-389) |  | binds |  | 
3xFlag-tagged HBV M envelope protein (HEK293T) (from UniProt P03138-2 1-281) | binds |  |  | 
3xFlag-tagged HBV M envelope protein (Huh7) (from UniProt P03138-2 1-281) |  | binds |  | 
3xFlag-tagged HBV S envelope protein (HEK293T) (from UniProt P03138-3 1-226) | no binding |  |  | 
3xFlag-tagged HBV S envelope protein (Huh7) (from UniProt P03138-3 1-226) |  | no binding |  | 
HA-tagged M envelope protein (from UniProt P03138-2 1-281) |  |  |  | binding [3]: binds
HBV L envelope protein expressed in HepAD38 cells (from UniProt P03138 1-389) |  |  | binds | 
HBV M envelope protein expressed in HepAD38 cells (from UniProt P03138-2 1-281) |  |  | binds | 
HBV S envelope protein expressed in HepAD38 cells (from UniProt P03138-3 1-226) |  |  | no binding | 
